# Measured values from PubChem BioAssay AID463173 (ICCB-Longwood Screening Facility, Harvard Medical School, 2010).
# In all, about 52,000 compounds went through this assay and about 1,700 (3.3%) were called active. Rule as the data show it: active = survival mostly below about 52% (no sharp cut-off); inactive = mostly above about 56%. The list shows a part of the results.
# Test system: Wild type
# Test: growth inhibition of S. aureus wild type versus tarO mutant, primary screen, teichoic acid synthesis inhibitors, RN4220, OD600 (AID 463173)
# Settings: S. aureus RN4220 wild type/DeltatarO growth, OD600, 18 h, stronger effect = lower value, screened at 18.75 µg/mL (by protocol)
row,Compound,survival
1,Cc1nn(CC(=O)NCc2ccco2)c(=O)c2nn(-c3ccccc3)c(C)c12,inactive: 90%
2,CC(=O)N1CCc2cc(CNS(=O)(=O)c3ccccc3C(F)(F)F)ccc21,inactive: 66%
3,CCCOc1ccc(C(=O)Nc2cccc(NC(=O)c3ccc(Cl)cc3Cl)c2)cc1,inactive: 92%
4,CC(=O)Nc1ccc(NC(=O)c2c(-c3ccccc3)noc2C)cc1,inactive: 70%
5,O=C(O)c1ccc(CSc2nc3cccnc3n2Cc2cccc(F)c2)cc1,inactive: 81%
6,CCOc1cccc(C2Oc3nc(SC)nnc3-c3ccccc3N2C(C)=O)c1OC (centres undefined),inactive: 68%
7,Cc1cc(C)cc(NC(=O)Cn2c(C)cc(C)c(C#N)c2=O)c1,inactive: 72%
8,O=C(CSc1nc2ccccc2n1Cc1cccc(C(F)(F)F)c1)NCc1ccccc1,inactive: 83%
9,COC(=O)CC1Oc2ccc(Cl)cc2-n2cc(-c3ccc(C)cc3)nc21 (centres undefined),inactive: 73%
10,Nc1ncc(S(=O)(=O)N2CCN(c3ccccc3)CC2)cn1,inactive: 129%
11,COc1ccc(Cl)cc1NC(=O)c1oc2ccc(S(=O)(=O)N3CCCCC3)cc2c1C,inactive: 76%
12,COc1ccc(N2CCN(C(=O)c3ccc(CS(=O)c4cccc(C)c4)o3)CC2)cc1 (centres undefined),inactive: 83%
13,Cc1ccc(S(=O)(=O)C(CNC(=O)C(=O)NCCc2ccc(F)cc2)c2cccs2)cc1 (centres undefined),inactive: 80%
14,O=C(CSc1nc2c([nH]c3ccccc32)c(=O)n1-c1ccc(F)cc1)Nc1ccc2c(c1)OCO2,inactive: 49%
15,COc1cc(NC(=O)CSc2ccc(-c3sc(C)nc3C)nn2)cc(OC)c1,inactive: 23%
16,CCN1c2ccccc2-c2nc(SCC(=O)Nc3cc(C)c(Cl)cc3OC)ncc2S1(=O)=O,inactive: 81%
17,Oc1c(C(c2cccc(Cl)c2)N2CCOCC2)sc2nc(-c3ccco3)nn12 (centres undefined),inactive: 91%
18,c1ccc2c(-n3cccn3)cccc2c1,inactive: 119%
19,O=C(Nc1ccc(F)c(Cl)c1)C1CCN(c2ncccn2)CC1,inactive: 82%
20,O=C1CC(=O)N(Cc2cccs2)C(=O)N1,inactive: 97%
21,Cc1ccc(C)c(N2CCN(c3nc4ccccc4n4nnnc34)CC2)c1,inactive: 89%
22,O=C(COc1ccc(F)cc1)NCc1ccc2c(c1)CCN2C(=O)c1ccc(F)cc1,inactive: 67%
23,O=S(=O)(c1ccc(S(=O)(=O)N(Cc2cccs2)C2CCCCC2)cc1)N1CCCC1,inactive: 97%

row,Compound,survival
1,COc1ccc(CCNC(=O)c2c3c(nc4ccccc24)C(=O)N(C2CCCCC2)C3)cc1OC,inactive: 101%
2,Cc1cc(-n2c(C)nc3ccccc3c2=O)ccc1NC(=O)c1cccc([N+](=O)[O-])c1C,active: -2%
3,Cc1cccc(OCC(=O)Nc2ccc(S(=O)(=O)N(Cc3ccccc3)c3ccccc3)cc2)c1,inactive: 82%
4,COCCn1c(=O)[nH]c2cc(C(=O)N3CCN(c4ccc(F)cc4)CC3)ccc2c1=O,inactive: 67%
5,Cc1cc(Br)cc(C)c1OCC(=O)Nc1ccc(S(=O)(=O)Nc2ncccn2)cc1,inactive: 63%
6,CCc1nn(CC(=O)NCC(C)c2ccccc2)c(=O)c2cc3c(OC)cccc3n12 (centres undefined),inactive: 89%
7,COC(=O)c1ccccc1NC(=O)C1CCCN(C(=O)c2cnn(-c3ccc(F)cc3)c2-n2cccc2)C1 (centres undefined),inactive: 66%
8,Cc1oc(-c2ccccc2F)nc1Cn1c(SCc2cccc(Cl)c2)nc2ccncc21,inactive: 51%
9,N#C/C(=C\c1ccc(-c2ccc(Br)cc2)o1)C(=O)Nc1ccccc1O,inactive: 74%
10,Cc1ccc(-n2ncc3c(N4CCN(Cc5ccccc5)CC4)ncnc32)cc1C,inactive: 79%
11,O=C(NCCc1csc(-c2ccc(C(F)(F)F)cc2)n1)c1ccccc1Cl,inactive: 70%
12,CCOCCc1nn2c(=O)cc(COC(=O)c3ccccc3Br)nc2s1,inactive: 76%
13,CCOC(=O)C1(CCSC)NC(c2cccs2)C2C(=O)N(CC)C(=O)C21 (centres undefined),inactive: 116%
14,O=C(Nc1ccccn1)NC12CC3CC(CC(C3)C1)C2,inactive: 126%
15,C1=C(c2cccs2)OC(c2cccs2)=CC1c1cccs1,inactive: 105%
16,CN(C)c1ccc(CNC(=O)CN2C(=O)c3cccnc3Oc3ccc(Cl)cc32)cc1,inactive: 72%
17,Cc1oc2ccc(O)c(CN3CCN(Cc4ccccc4)CC3)c2c1C(=O)Nc1ccccc1,inactive: 81%
18,CCOC(=O)c1cccc(NC(=O)Cn2c(CC(=O)N3CCCC3)nc3ccccc32)c1,inactive: 106%
19,Cc1nn(CC(=O)NCc2cccc(Br)c2)c(=O)c2c1sc1ccccc12,inactive: 124%
20,O=S(=O)(NCCc1nnc2ccc(SCc3ccc(C(F)(F)F)cc3)nn12)c1ccccc1,inactive: 74%
21,Cc1cc(C)c(S(=O)(=O)NCCc2cc3cc(C)c(C)cc3[nH]c2=O)c(C)c1,inactive: 63%
22,Cc1ccc(Nc2nc3ccc(C)cc3nc2-n2nc(C)cc2C)c(C)c1,inactive: 80%
23,COc1ccc(NC(=O)CSc2nnc(-c3ccc(OC)cc3)s2)cc1,inactive: 66%

row,Compound,survival
1,COc1cccc(C(c2sc3nc(-c4ccco4)nn3c2O)N2CCOCC2)c1 (centres undefined),inactive: 71%
2,O=C(C1COc2ccccc2O1)N1CCN(c2nc3c(F)cccc3s2)CC1 (centres undefined),inactive: 90%
3,COc1ccc(N(CC(=O)NCc2ccccc2Cl)S(=O)(=O)c2c(C)[nH]c(=O)[nH]c2=O)cc1,inactive: 79%
4,COCCNC(=O)C1CCC(CNS(=O)(=O)c2ccc3c(c2)CC(C)N3C(C)=O)CC1 (centres undefined),inactive: 97%
5,CC(C)C(=O)Nc1nnc(S(=O)(=O)N2CCCCCC2)s1,inactive: 87%
6,COc1cc(C(CC(=O)Nc2ccc(Br)cn2)N2Cc3ccccc3C2=O)cc(OC)c1OC (centres undefined),inactive: 70%
7,O=S1(=O)CCC(NC(=S)SCCOc2ccccc2OCCO)C1 (centres undefined),inactive: 110%
8,Cc1c(C(=O)Nc2cccc(F)c2)oc2c1-c1nn(Cc3c(F)cccc3Cl)cc1CC2,inactive: 120%
9,CCCC1(C(=O)OC)NC(c2cc(OC)c(OC)c(OC)c2)C2C(=O)N(c3ccc(C)cc3)C(=O)C21 (centres undefined),inactive: 105%
10,C=CCc1c(C)nc(SC)nc1Nc1ccc(C(=O)O)cc1,inactive: 111%
11,Cc1oc2c(c1C(=O)Nc1ccccc1Br)C1=NCCN1C=N2,inactive: 84%
12,Cc1ccc(CNC(=O)c2c(O)nc3ccccn3c2=O)cc1,inactive: 113%
13,Cc1ccc(Cn2c(=O)n(CC3CCC(C(=O)N4CCC(C)CC4)CC3)c(=O)c3sccc32)cc1 (centres undefined),inactive: 66%
14,Cc1ccc(N(Cc2cccs2)C(=O)Nc2cccc(Cl)c2)cc1,inactive: 84%
15,Cc1c(Cl)cccc1NC(=O)NCc1c(-n2cccc2)sc2c1CCCC2,inactive: 88%
16,O=C(NCCc1cccs1)c1ccc(Cn2c(SCc3ccccc3)nc3cccnc32)cc1,inactive: 80%
17,COc1cccc(CNC(=O)c2sc3nc4n(c(=O)c3c2C)CCC4)c1,inactive: 115%
18,CCOC(=O)c1ccccc1NC(=O)c1cc2c(s1)-c1c(C)cccc1OC2,inactive: 108%
19,CCOc1ccccc1NC(=O)Cn1cnc2c1c(=O)n(C)c(=O)n2C,inactive: 72%
20,COc1ccc(N2CC3=C(C2=O)C(c2ccc(O)c(OC)c2)NC(=O)N3C)cc1 (centres undefined),inactive: 71%
21,CC(C)OCCCNc1sc(S(=O)(=O)c2ccccc2)nc1S(=O)(=O)c1ccc(Cl)cc1,inactive: 83%
22,CCOc1ccccc1NC(=O)CSc1nc2c(oc3ccccc32)c(=O)n1C(C)C,inactive: 83%
23,COCCCNC(=O)c1cc(-c2ccc(OC)cc2)nc2n[nH]c(-c3ccc(Cl)cc3)c12,inactive: 75%

row,Compound,survival
1,Cc1c(C(=O)Nc2ccc(F)cc2F)oc2ccc3c(c12)C(=O)CC(C)(C)O3,inactive: 98%
2,COc1ccc(CCNC(=O)c2cnc3ccc(C)cn3c2=O)cc1OC,inactive: 90%
3,Cn1ncc2c(NCc3ccc(Cl)cc3)ncnc21,inactive: 75%
4,CCOc1ccc(NC(=O)CSc2ncn[nH]2)cc1,inactive: 86%
5,Cc1nc(Nc2nc3ccccc3o2)nc(-c2ccc(Cl)cc2)c1C#N,inactive: 105%
6,Cc1ccsc1CN(Cc1ccco1)C(=O)c1ccc(Cl)cc1,inactive: 65%
7,Nc1cc[n+](CC(O)CO)cc1 (centres undefined),inactive: 98%
8,Cc1ccc(C)c(N2CCN(S(=O)(=O)c3ccc(-c4cc(C(F)(F)F)on4)s3)CC2)c1,inactive: 75%
9,COc1cc(OC)c(N(C)C(=O)c2cn(C)c(=O)c3cc(OC)c(OC)cc23)cc1Cl,inactive: 74%
10,O=C(Nc1nc2c(F)cc(F)cc2s1)c1ccc2c(c1)OCCO2,inactive: 100%
11,O=C(CN1C(=O)COc2ccc(S(=O)(=O)N3CCOCC3)cc21)Nc1ccc(F)c(Cl)c1,inactive: 100%
12,O=C(Nc1nc2ccc(F)cc2s1)c1nc(SCc2ccccc2F)ncc1Cl,inactive: 85%
13,Cc1c(Cl)cccc1NC(=O)C1CCCN(C(=O)c2cnn(-c3ccccc3)c2-n2cccc2)C1 (centres undefined),inactive: 82%
14,O=C(NCCc1ccc(Cl)cc1)C(=O)NCC(c1ccc2c(c1)OCO2)N1CCOCC1 (centres undefined),inactive: 121%
15,Cc1cc(C)n(C(=O)CNC(=O)Cc2ccccc2)n1,inactive: 108%
16,Cc1cc(C)c(S(=O)(=O)NCCc2sc(-c3cccnc3)nc2C)c(C)c1,inactive: 128%
17,O=C(Nc1cc(C(F)(F)F)ccc1Cl)c1cc(-c2cccs2)nc2ccccc12,inactive: 68%
18,Cn1c(=O)c2cc(C(=O)N3CCN(c4cccc(C(F)(F)F)c4)CC3)sc2c2ccccc21,inactive: 77%
19,COc1ccc(-c2ccc(/C=N/NC(N)=O)o2)cc1,inactive: 114%
20,Cc1cc(S(=O)(=O)Nc2cc3c(cc2Cl)n(C)c(=O)c(=O)n3C)ccc1F,inactive: 70%
